Reference: the antibiotic and cytotoxicity screens of Wong et al. (2023)
The other results are listed elsewhere or left out.

How the values were obtained:
HSkMC = human skeletal muscle cells; assay: cytotoxicity call (relative viability < 0.9); conditions: 10 µM
HepG2 = assay: cytotoxicity call (relative viability < 0.9); conditions: 10 µM
S. aureus RN4220 = assay: growth inhibition call (relative growth <= 0.2); conditions: 50 µM

SMILES | cytotoxicity call (HSkMC) | cytotoxicity call (HepG2) | growth inhibition call (S. aureus RN4220)
COc1ccc(NC(=O)Nc2ccc3c(c2)C(=O)N([C@@H](C)CO)C[C@H](C)[C@@H](CN(C)C(=O)Nc2cccc4ccccc24)O3)cc1 | inactive | inactive | inactive
C[C@H]1CN([C@@H](C)CO)C(=O)c2cc(C#Cc3ccccc3)cnc2O[C@H]1CN(C)C(=O)CCN1CCCCC1 | inactive | active | inactive
C[C@@H]1CCCCO[C@H](CN(C)C(=O)Nc2ccc(F)cc2)[C@H](C)CN([C@H](C)CO)C(=O)c2cc(NC(=O)c3ccccc3)ccc2O1 | inactive | inactive | inactive
COc1ccc(NC(=O)Nc2ccc3c(c2)CC(=O)N([C@H](C)CO)C[C@H](C)[C@@H](CN(C)Cc2ccc(Oc4ccccc4)cc2)O3)cc1 | inactive | inactive | inactive
C[C@@H]1CN([C@H](C)CO)C(=O)c2cccc(NC(=O)Nc3cccc4ccccc34)c2O[C@@H]1CN(C)Cc1ccc(Oc2ccccc2)cc1 | inactive | inactive | inactive
O=C(O)[C@@H](O)c1ccccc1 | inactive | inactive | inactive
C[C@H](CO)N1C[C@H](C)[C@@H](CN(C)Cc2ccc(-c3ccccc3)cc2)Oc2ccc(NC(=O)C3CCCCC3)cc2CC1=O | inactive | inactive | inactive
C[C@@H]1CN([C@H](C)CO)C(=O)c2cc(C#Cc3cccnc3)cnc2O[C@H]1CN(C)Cc1ccc(F)cc1 | inactive | inactive | inactive
COc1cccc(NC(=O)N[C@H]2C=C[C@H](CC(=O)N3CCN(C)CC3)O[C@@H]2CO)c1 | inactive | inactive | inactive
Cc1ccc(S(=O)(=O)N(C)C[C@@H]2OCCCC[C@H](C)Oc3ccc(NC(=O)CCC(F)(F)F)cc3C(=O)N([C@H](C)CO)C[C@@H]2C)cc1 | inactive | inactive | inactive
C=c1cc(C)ccc1=C1NN=C(NC(=O)CC)O1 | inactive | inactive | inactive
CC(=O)c1ccc2c(c1)N(CCCN(C)C)c1ccccc1S2.O=C(O)C=CC(=O)O | inactive | inactive | inactive
CCCCCCCCCCCC=C=CCCCC(=O)O | inactive | inactive | inactive
C[C@H]1CN([C@@H](C)CO)C(=O)c2cc(NC(=O)Nc3ccc4c(c3)OCO4)ccc2O[C@@H]1CN(C)S(C)(=O)=O | inactive | inactive | inactive
CO[C@H]1CN(S(=O)(=O)c2cn(C)cn2)[C@H]2COC[C@@H]12 | inactive | inactive | inactive
C[C@H]1CN([C@@H](C)CO)C(=O)c2cccc(NC(=O)c3cnccn3)c2O[C@@H]1CN(C)Cc1ccccc1 | inactive | inactive | inactive
Cc1noc(C)c1S(=O)(=O)Nc1ccc2c(c1)C(=O)N([C@@H](C)CO)C[C@@H](C)[C@@H](CN(C)Cc1ccc(C(F)(F)F)cc1)OCCCC[C@H](C)O2 | inactive | inactive | inactive
COc1ncc(-c2nc(N3CCOCC3)nc3c(CN4CCC(C(C)(C)O)CC4)cc(F)cc23)cc1NS(C)(=O)=O | inactive | inactive | inactive
Cc1cc(C(=O)NCc2cc3n(n2)CCN(S(C)(=O)=O)C3)nc(C)n1 | inactive | inactive | inactive

SMILES | cytotoxicity call (HSkMC) | cytotoxicity call (HepG2) | growth inhibition call (S. aureus RN4220)
C[C@@H]1CN([C@H](C)CO)C(=O)CCCn2cc(nn2)CO[C@@H]1CN(C)C(=O)Nc1ccc(N2CCCCC2)cc1 | inactive | inactive | inactive
C[C@@H]1CN([C@@H](C)CO)C(=O)c2cccc(NC(=O)CCCCCC(=O)Nc3ccccc3N)c2O[C@@H]1CN(C)C(=O)Nc1ccc(F)cc1 | inactive | inactive | inactive
Cc1ccc(S(=O)(=O)N(C)C[C@H]2OCCCC[C@H](C)Oc3ccc(NC(=O)Nc4ccccc4)cc3C(=O)N([C@H](C)CO)C[C@@H]2C)cc1 | inactive | inactive | inactive
COCC(=O)Nc1ccc2c(c1)C(=O)N(C)C[C@H](OC)[C@@H](C)CN(Cc1ccccc1OC)[C@@H](C)CO2 | inactive | inactive | inactive
C[C@@H](O)C#Cc1ccc2c(c1)O[C@H](CN(C)C(=O)Nc1ccccc1)[C@@H](C)CN([C@@H](C)CO)S2(=O)=O | inactive | inactive | inactive
O=C(NCc1ccccc1)c1cn[nH]n1 | inactive | inactive | inactive
C[C@@H]1CN([C@H](C)CO)C(=O)c2cccc(NS(=O)(=O)c3cn(C)cn3)c2O[C@H]1CN(C)S(=O)(=O)c1cn(C)cn1 | inactive | inactive | inactive
C[C@@H](O)C#Cc1ccc2c(c1)O[C@H](CN(C)C(=O)C1CCCCC1)[C@@H](C)CN([C@@H](C)CO)S2(=O)=O | inactive | inactive | inactive
O=S(=O)(NCC[C@H]1CC[C@H](NS(=O)(=O)c2ccccc2Cl)[C@H](CO)O1)c1ccc(Cl)cc1 | inactive | inactive | inactive
C[C@@H]1CCCCO[C@@H](CN(C)C(=O)NC2CCCCC2)[C@@H](C)CN([C@@H](C)CO)C(=O)c2cc(NS(=O)(=O)c3cccs3)ccc2O1 | inactive | inactive | inactive
CCCNC(=O)C[C@H]1CC[C@H]2[C@@H](COc3ccc(NS(=O)(=O)c4ccccc4C)cc3C(=O)N2C)O1 | inactive | inactive | inactive
CC(C)NC(=O)N(C)C[C@H]1Oc2c(NS(=O)(=O)c3cccs3)cccc2C(=O)N([C@@H](C)CO)C[C@@H]1C | inactive | inactive | inactive
Cc1noc(C)c1NC(=O)N[C@H]1CC[C@@H](CC(=O)N2CCN(C)CC2)O[C@@H]1CO | inactive | inactive | inactive
Cc1cc(=O)nc(SCC(N)=O)[nH]1 | inactive | active | inactive
COc1ccc(S(=O)(=O)N(C)C[C@H]2Oc3ncc(-c4ccncc4)cc3C(=O)N([C@@H](C)CO)C[C@H]2C)cc1 | inactive | inactive | inactive
O=C(C[C@H]1C=C[C@@H](NC(=O)Nc2ccc3c(c2)OCO3)[C@@H](CO)O1)NCCCN1CCOCC1 | inactive | inactive | inactive
C[C@H](CO)N1C[C@H](C)[C@@H](CN(C)Cc2ccc(C(=O)Nc3ccccc3N)cc2)Oc2ccc(NC(=O)CCC(F)(F)F)cc2C1=O | inactive | inactive | inactive
CC(C)CCC[C@@H](C)[C@H]1CC[C@H]2[C@@H]3CCC4=C/C(=N/O)CC[C@]4(C)[C@H]3CC[C@]12C | inactive | inactive | inactive
COc1ccc(NC(=O)N(C)C[C@H]2Oc3ccc(NC(=O)CCCCCC(=O)Nc4ccccc4N)cc3CC(=O)N([C@H](C)CO)C[C@H]2C)cc1 | inactive | inactive | inactive

SMILES | cytotoxicity call (HSkMC) | cytotoxicity call (HepG2) | growth inhibition call (S. aureus RN4220)
C=CC[C@@H](CC(=O)N[C@@H](CO)Cc1ccccc1)C(=O)N[C@@H](C)COC(=O)[C@H](CC=C)CC(=O)OC(C)(C)C | inactive | inactive | inactive
CNC[C@@H]1Oc2ccc(NS(=O)(=O)c3cn(C)cn3)cc2CC(=O)N([C@@H](C)CO)C[C@@H]1C | inactive | inactive | inactive
C[C@H]1CN([C@@H](C)CO)C(=O)c2cc(C#Cc3cccnc3)cnc2O[C@H]1CN(C)Cc1ccc(F)cc1 | inactive | inactive | inactive
CN(C)CCCNC(=O)C[C@H]1CC[C@@H]2[C@H](COC[C@@H](O)CN2S(=O)(=O)c2ccc(F)cc2)O1 | inactive | inactive | inactive
Cc1noc(C)c1S(=O)(=O)Nc1ccc2c(c1)C(=O)N([C@@H](C)CO)C[C@@H](C)[C@H](CN(C)Cc1ccncc1)O2 | inactive | inactive | inactive
Cc1ccc(S(=O)(=O)N(C)C[C@@H]2Oc3cc(C#Cc4ccccc4)ccc3S(=O)(=O)N([C@@H](C)CO)C[C@H]2C)cc1 | inactive | inactive | inactive
C[C@H]1[C@H]([Si](C)(C)F)[C@@H](CCn2cc([C@H](O)c3ccccc3)nn2)O[C@]12C(=O)N(c1ccccc1)c1ccccc12 | inactive | inactive | inactive
C[C@@H]1CN([C@@H](C)CO)C(=O)Cc2cc(NC(=O)CCCN(C)C)ccc2O[C@H]1CN(C)S(=O)(=O)c1ccccc1 | inactive | inactive | inactive
COc1ccc(S(=O)(=O)Nc2ccc3c(c2)C(=O)N([C@@H](C)CO)C[C@@H](C)[C@@H](CN(C)CC2CC2)O3)cc1 | inactive | inactive | inactive
Clc1ccc([C@H]2CC(C3CC3)=NN2c2ccccc2)cc1 | inactive | inactive | inactive
C[C@H](CO)N1C[C@H](C)[C@@H](CN(C)Cc2ccc(C(F)(F)F)cc2)Oc2ccc(NS(C)(=O)=O)cc2CC1=O | inactive | inactive | inactive
Cc1noc(C)c1S(=O)(=O)N(C)C[C@@H]1Oc2c(NS(=O)(=O)c3cn(C)cn3)cccc2C(=O)N([C@@H](C)CO)C[C@H]1C | inactive | inactive | inactive
CN1C(=O)c2cc(NC(=O)C3CCC3)ccc2OC[C@H]2O[C@H](CC(=O)NCCc3ccncc3)CC[C@H]21 | inactive | inactive | inactive
OCC(S)CS (stereo unspecified) | inactive | inactive | inactive
COc1ccc(S(=O)(=O)Nc2ccc3c(c2)C(=O)N([C@@H](C)CO)C[C@@H](C)[C@@H](CN(C)Cc2ccc(Cl)c(Cl)c2)OCCCC[C@@H](C)O3)cc1 | active | active | inactive
CCCCCCCCCC[C@@H](O)[C@H]1C=C[C@@H]2C(=O)N(c3ccccc3)C(=O)[C@@H]2N1Nc1ccc([N+](=O)[O-])cc1 | active | inactive | inactive
C[C@H](CO)N1C[C@H](C)[C@H](CN(C)S(=O)(=O)c2ccccc2)Oc2cc(C#Cc3ccncc3)ccc2S1(=O)=O | inactive | active | inactive
C[C@@H]1CN([C@@H](C)CO)S(=O)(=O)c2ccc(Br)cc2O[C@@H]1CN(C)S(=O)(=O)c1ccc(F)cc1 | inactive | inactive | inactive
C[C@@H]1CN([C@@H](C)CO)C(=O)c2cc(NC(=O)Nc3cccc4ccccc34)ccc2O[C@@H](C)CCCCO[C@@H]1CN(C)C(=O)C1CCCCC1 | active | inactive | inactive
